We go through 29 compounds from PubChem BioAssay AID1745853 (National Center for Advancing Translational Sciences (NCATS), 2022).

What all share (experiment): Primary Screen for Target Class Profiling of Small Molecule Inhibitors of Methyltransferases
Assay [1] addresses Glycine N-methyltransferase (Homo sapiens) (UniProt Q14749). The note with it: purified enzyme, MTase-Glo SAH luminescence; measured here: GNMT inhibition; at 40 µM; stronger effect = lower value. Summed up: (§1)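 Each enzyme was reacted with SAM and its substrate, with compounds tested once at 40 uM; SAH formed was read by MTase-Glo luminescence.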
In assay [2] the target is Guanidinoacetate N-methyltransferase (Homo sapiens) (UniProt Q14353). The conditions noted are these: purified enzyme, MTase-Glo SAH luminescence; measured here: GAMT inhibition; at 40 µM; stronger effect = lower value. Summed up: as §1
The target in assay [3] is Histamine N-methyltransferase (Homo sapiens) (UniProt P50135). The note with it: purified enzyme, MTase-Glo SAH luminescence; measured here: HNMT inhibition; at 40 µM; stronger effect = lower value. The method in brief:
as §1

Assay [4] concerns the target Nicotinamide N-methyltransferase (Homo sapiens) (UniProt P40261). The note with it: purified enzyme, MTase-Glo SAH luminescence; measured here: NNMT inhibition; at 40 µM; stronger effect = lower value. Summed up: as §1
The target of assay [5] is Phenylethanolamine N-methyltransferase (Homo sapiens) (UniProt P11086). The conditions noted are these: purified enzyme, MTase-Glo SAH luminescence; measured here: PNMT inhibition; at 40 µM; stronger effect = lower value. Summed up: as §1

The structures appear in SMILES notation. The list shows a part of the results. The main result of the screen is listed elsewhere. These columns were measured beside it and carry no call.
% is set by controls: 0 for no effect and ±100 for the full control effect.

For `O=C(NCCc1ccc(Cl)cc1)c1ccc2c(=O)nc3c(-c4cccc(F)c4)n[nH]n3c2c1`, the activity change, negative = inhibition in assay [1] was 2.64%; in assay [2], -1.22%; in assay [3] it was 3.83%; in assay [4], -6.05%; in assay [5], -0.276%.
As to `COc1ccccc1OC1(C(=O)O)CCN(c2ncnc(C)c2C)CC1`, the activity change, negative = inhibition was -0.244% in assay [1]; 2.9% in assay [2]; 1.59% in assay [3]; -2.7% in assay [4]; -2.37% in assay [5].
Turning to `CCCCOc1ccc(CNC(=O)c2cc3n(n2)CC(C)(C(=O)NC2CCCC2)N(CC)C3=O)cc1` (stereo not given), the activity change, negative = inhibition in assay [1] turned out to be 3.21%; in assay [2], 0%; in assay [3] it was 5.44%; in assay [4], 3.95%; in assay [5], 1.37%.
As to `CN(Cc1ccc2nsnc2c1)Cc1cc2n(n1)CCCNC2`, the activity change, negative = inhibition in assay [1] was -1.22%; in assay [2], 3.96%; in assay [3] it was -0.681%; in assay [4], -2.42%; in assay [5], -5.61%.
Turning to `O=C1CCC2(CNC(=O)c3cc(F)ccc3F)CCC=C2N1` (stereo not given), the activity change, negative = inhibition in assay [1] is 0.632%; in assay [2], -1.07%; in assay [3], 2.81%; in assay [4], -4.57%; in assay [5] it was 3.2%.
As to `CC(C)Nc1nc(Nc2ccccc2)nc(-c2ccccc2)n1`, the activity change, negative = inhibition in assay [1] is -3.67%; in assay [2], -15.9%; in assay [3], -9.06%; in assay [4] it was -23.4%; in assay [5] it was -15.3%.
On to `COCCn1c(C)cnc1C1CCN(S(=O)(=O)c2ccc(C#N)cc2)C1` (stereo not given), for which the activity change, negative = inhibition in assay [1] was -0.66%; in assay [2], -0.596%; in assay [3], -6.96%; in assay [4], -8.07%; in assay [5], -0.919%.
In the same order, the values of `COc1ccc([C@H]2CN(C(=O)C3(c4ccc(F)cc4)CC3)C[C@@H]2N)cc1` are -3.99%, -2.43%, -1.43%, -1.07% and 2.88%.
The corresponding values for `COc1cccc(CN2C[C@@H]3C(C(=O)O)[C@@H]3C2)c1OCCn1ccnc1` (stereo not given in full) are -5.24%, -5.17%, -2.38%, -10.7% and -5.04%.
On to `CCCN1C(=O)c2cc(C(=O)NCc3ccccc3)nn2CC1(C)C(=O)NC1CCCC1` (stereo not given), for which the activity change, negative = inhibition in assay [1] is 4.48%; in assay [2] it was 0.533%; in assay [3], 2.65%; in assay [4], 7.7%; in assay [5], 2.72%.
The corresponding values for `CCOc1ccc(NC(=O)N2CCn3cccc3C2C)cc1` (stereo not given) are 1.45%, 0%, 2.76%, -5.2% and -0.686%.
Turning to `CCOCCCNC(=O)C1c2c(n(C)c3ccccc23)SCC(=O)N1c1ccc(C(C)C)cc1` (stereo not given), the activity change, negative = inhibition was -0.144% in assay [1]; 1.02% in assay [2]; -1.22% in assay [3]; -5.11% in assay [4]; 1.52% in assay [5].
In the case of `COc1ccccc1CNc1nc2c(S(=O)(=O)c3ccccc3)nnn2c2ccc(Cl)cc12`, the activity change, negative = inhibition in assay [1] was -2.14%; in assay [2], 1.03%; in assay [3], 4.32%; in assay [4], 7.47%; in assay [5], 1.07%.
With `Cc1ccc2c(c1)c(-n1cccc1)c1n2CC(C)(C(=O)NC2CCCC2)N(CCC2=CCCCC2)C1=O` (stereo not given), the activity change, negative = inhibition is -5.75% in assay [1]; -3.6% in assay [2]; -6.99% in assay [3]; -14.3% in assay [4]; -7.51% in assay [5].
As for `O=C1CCCCC(C(=O)N2CCCCC2)N1` (stereo not given), the activity change, negative = inhibition in assay [1] is 0.131%; in assay [2] it was 0.004%; in assay [3], 3.39%; in assay [4], -2.53%; in assay [5], 0.615%.
For the compound `O=c1c2nc(Nc3cccnc3)ccc2ncn1-c1ccc(F)cc1F`, the activity change, negative = inhibition in assay [1] is -20%; in assay [2], -14.3%; in assay [3] it was -15.7%; in assay [4], -22.1%; in assay [5], -19.8%.
For the compound `CC1CN(S(=O)(=O)c2cccc3cnccc23)CCN1` (stereo not given), the activity change, negative = inhibition in assay [1] was 0.403%; in assay [2], 8.26%; in assay [3], 8.54%; in assay [4], -7.55%; in assay [5], 0.916%.
Consider `Cc1ccc(NC(=O)CSc2nnc3n(CC(C)C)c(=O)c4ccccc4n23)cc1`, for which the activity change, negative = inhibition in assay [1] is -4.64%; in assay [2] it was -5.64%; in assay [3], 10.4%; in assay [4], -30.5%; in assay [5] it was -0.795%.
With `CC1(C(=O)NC2CCCC2)Cn2c(cc3ccccc32)C(=O)N1CCN1CCOCC1` (stereo not given), the activity change, negative = inhibition in assay [1] is 2.96%; in assay [2] it was 4.13%; in assay [3], 2.42%; in assay [4], 2.6%; in assay [5], -3.45%.
Turning to `CN(CC(=O)Nc1ccccc1F)S(=O)(=O)c1ccc2[nH]c3c(c2c1)CCCC3`, the activity change, negative = inhibition is -4.85% in assay [1]; -3.27% in assay [2]; 1.44% in assay [3]; -3.69% in assay [4]; -0.94% in assay [5].
`CCOC(=O)C1=C[C@]2(CC)CCCN3CCc4c(n1c1ccccc41)[C@@H]32`: the activity change, negative = inhibition in assay [1] was -12.1%; in assay [2], 7.4%; in assay [3] it was -13.8%; in assay [4], -1.65%; in assay [5] it was 5.11%.
In the same order, the values of `CCn1c(-c2nonc2N)nc2c(C#CCO)ncc(OCCCN)c21` are -0.883%, 6.62%, -6.62%, -33.2% and -5.01%.
On to `CCC(C(=O)NCc1cccc(C)c1)n1ccc2cc(S(=O)(=O)N3CCCCC3)ccc21` (stereo not given), for which the activity change, negative = inhibition in assay [1] was -1.25%; in assay [2], 5.16%; in assay [3] it was -1.09%; in assay [4], 0.232%; in assay [5], -0.295%.
As for `CCOC(=O)c1cc2n(n1)CC(C)(C(=O)NCCC(C)C)N(CCCc1ccccc1)C2=O` (stereo not given), the activity change, negative = inhibition is -3.95% in assay [1]; 4.3% in assay [2]; -3.82% in assay [3]; -5.46% in assay [4]; -8.78% in assay [5].
As to `CC(=O)c1cc2c(cc1O)OC(C)(C)C=C2`, the activity change, negative = inhibition in assay [1] was -2.25%; in assay [2], -3.37%; in assay [3] it was 6.64%; in assay [4], -17.5%; in assay [5], -1.42%.
`COC(=O)[C@@H](Cc1cccnc1)NC(=O)[C@@H]1CN(C(=O)c2cccc(F)c2)CCN1C(=O)C1CCCCC1`: the activity change, negative = inhibition in assay [1] was -3.44%; in assay [2], -8.76%; in assay [3], -4.23%; in assay [4], -14%; in assay [5], 9.04%.
For `COC(=O)NCCNC(=O)c1cccc(-c2ccc(SC)cc2)c1`, the activity change, negative = inhibition is -4.57% in assay [1]; -1.57% in assay [2]; 1.22% in assay [3]; -5.98% in assay [4]; -1.15% in assay [5].
For the compound `Cn1cccc1C(=O)N1CC(CO)C2(CCNCC2)C1` (stereo not given), the activity change, negative = inhibition in assay [1] is 1.91%; in assay [2], -0.45%; in assay [3] it was 0.094%; in assay [4] it was 2.06%; in assay [5], -19.9%.
With `CN1CCC(C(=O)N2CCC3(CC2)CN(C(=O)c2ccc(Cl)cc2)CCO3)CC1`, the activity change, negative = inhibition is 0.132% in assay [1]; -0.002% in assay [2]; -4.07% in assay [3]; -0.606% in assay [4]; 2.87% in assay [5].
